Test results as given in PubChem BioAssay AID1159614 (National Center for Advancing Translational Sciences (NCATS), 2016).
Out of some 45,000 compounds screened, about 65 (0.1%) were called active. Calls come from the whole dose curve; as a rule, active = well fitted activation curve with a large enough effect; inconclusive = small, poorly fitted or top-dose-only effect; inactive = no such curve, though single readings can be large or run the other way. Some of the results follow.

Each molecule was assayed against Galactocerebrosidase (Homo sapiens) (UniProt P54803) (assay: A Novel Cell-Based Assay to Identify Small Molecules for B -Galactocerebrosidase). Conditions: 145M-Twi-hGALC-G270D cells (Twitcher mouse brain line with human GALC G270D), HMU-beta-Gal fluorescence, 48 h; series mostly up to 57.5 µM; activation: at the top concentration.
Summary of the method: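 Fluorescence readout: HMU-β-gal cleavage by mutant GALC (0.1 mM final, citrate/phosphate pH 5.2 with 1 mg/mL taurocholate), stopped with carbonate/bicarbonate plus Triton X-100. Cells: murine Twitcher 145M-Twi expressing human G270D GALC; qHTS for activators.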
Note: 0% is about no effect; nearly all actives have a fitted effect of over 65% in size.

UniProt P54803, sequence (P54803 whole entry, looked up): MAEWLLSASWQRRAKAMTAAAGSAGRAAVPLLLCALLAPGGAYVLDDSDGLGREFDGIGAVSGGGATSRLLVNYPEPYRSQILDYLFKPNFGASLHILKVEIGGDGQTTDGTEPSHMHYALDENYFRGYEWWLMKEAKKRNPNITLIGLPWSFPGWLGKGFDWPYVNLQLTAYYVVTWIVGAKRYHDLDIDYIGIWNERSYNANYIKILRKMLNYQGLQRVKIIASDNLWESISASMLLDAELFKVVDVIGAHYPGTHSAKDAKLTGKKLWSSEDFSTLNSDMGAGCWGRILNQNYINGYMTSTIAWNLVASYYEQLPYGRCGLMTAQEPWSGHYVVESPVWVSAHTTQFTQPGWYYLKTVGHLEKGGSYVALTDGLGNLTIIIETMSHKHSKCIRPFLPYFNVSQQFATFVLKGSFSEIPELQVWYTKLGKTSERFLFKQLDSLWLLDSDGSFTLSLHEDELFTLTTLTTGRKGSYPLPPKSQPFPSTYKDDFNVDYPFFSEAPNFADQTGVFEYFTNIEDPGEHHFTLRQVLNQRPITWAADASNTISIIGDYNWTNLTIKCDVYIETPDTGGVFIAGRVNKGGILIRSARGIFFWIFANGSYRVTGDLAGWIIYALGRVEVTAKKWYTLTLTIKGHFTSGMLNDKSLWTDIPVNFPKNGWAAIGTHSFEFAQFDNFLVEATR

activation, inactive:
CCOC(=O)C1=C(CN2CCN(c3cccc(OC)c3)CC2)NC(=O)NC1c1ccc(OC)cc1 (configuration not stated) -12.9%
Cn1c(=O)c2c(n3ncnc13)NC(=O)CC2c1cccc(F)c1 (configuration not stated) 2.83%
COc1ccc(NS(=O)(=O)c2ccc3c(c2)CC(C)N3C(C)=O)c(OC)c1 (configuration not stated) -4.09%
C=Cc1ccc(CSc2nnc(C)n3c2cc2occc23)cc1 -12.8%
Cc1ccc(-n2c(=O)c3c(cnn3C)n(CC(=O)Nc3c(C)cccc3C)c2=O)cc1 -9.23%
COc1ccc(NC(=O)c2oc3c(c2C)-c2nn(Cc4ccccc4Cl)cc2CC3)cc1OC -20.6%
Cc1ccc(C(=O)Nc2nc(-c3nnn(-c4cccc(Cl)c4C)c3C)ns2)cc1C -14%
COc1cccc(-c2nc(CS(=O)(=O)CC(=O)NCCc3ccc(OC)c(OC)c3)c(C)o2)c1 -19.5%
CC(=O)OCc1cnc(C)c2oc(=O)c(C(=O)Nc3ccc(C)cc3Cl)cc12 -16.4%
COc1ccc(-c2coc3c2c(C)cc2oc(=O)c(C)c(C)c23)cc1 -12.7%
CC1CCC(Nc2ncnc3onc(-c4ccc(Cl)cc4)c23)CC1 (configuration not stated) -19.9%
Cc1ccccc1NC(=O)CSc1nc2ccc(NC(=O)c3ccccc3)cc2s1 -2.21%
COc1ccc(NC(=O)C2=C(C)C(=O)OC23CCN(C(C)C)CC3)cc1Cl 3.71%
Cc1ccccc1CN1C(=O)C(O)(CC(=O)c2ccccc2)c2cc(Cl)ccc21 (configuration not stated) -24%
Cc1cccc(OCC(=O)Nc2ccc3nc(Nc4cccc(C(F)(F)F)c4)cc(C)c3c2)c1 1.82%
Cc1ccc(CNC(=O)c2oc3ccc(S(=O)(=O)N4CCC(C)CC4)cc3c2C)cc1 -7.58%
CCCCNC(=O)c1cc2c(=O)n3cccc(C)c3nc2s1 -7.65%
COc1ccccc1CNC(=O)c1ccc2c(c1)N(Cc1cc(C)ccc1C)C(=O)c1ccccc1S2 -14%
Cc1ccc(-n2ncc(C(=O)N3CCN(Cc4ccccc4)CC3)c2C2CCN(C(=O)OC(C)(C)C)CC2)cc1 -11.4%
CC(=O)c1cc(-c2ccccc2)n(CCC(=O)Nc2ccc(C(C)C)cc2)c1C -11.4%
COc1ccc(-c2cc(C(F)(F)F)n3nc(C(=O)O)c(Cl)c3n2)cc1OC 7.33%
CCOc1ccc(NC(=O)Cn2cc(C(=O)c3ccc(F)cc3)c(=O)c3cc4c(cc32)OCCO4)cc1 -14.6%
CC(C)(C)OC(=O)N1CCC(c2c(C(=O)NCCN3CCCC3)cnn2-c2ccc(Cl)cc2)CC1 -4.91%
COc1ccc(NC(=O)Cn2cnc3ccc(S(=O)(=O)N4CCC(C)CC4)cc3c2=O)cc1Cl -10.5%
Cc1ccc(-n2ccnc(NCCc3ccc(S(N)(=O)=O)cc3)c2=O)c(C)c1 -8.17%
Cc1oc(-c2ccc(C(=O)NCc3ccc(F)cc3)cc2)nc1CS(=O)c1ccccc1 (configuration not stated) -6.23%
CCOc1ccc(/C=C/c2nc(C#N)c(NC3CCCCC3)o2)cc1 -10.2%
COc1ccccc1OCCn1c(C(C)Oc2ccccc2)nc2ccccc21 (configuration not stated) -12.7%
COc1ccccc1-c1nnc(SCC(N)=O)o1 -6.59%
CC(C)c1ccc(NC(c2nnc(-c3ccccc3)o2)c2ccc(F)cc2Cl)cc1 (configuration not stated) -5.65%
CCN(CC)CCNC(=O)c1ccc(-c2nc(CS(=O)(=O)c3ccc(C)cc3)c(C)o2)cc1 -19.6%
CC(=O)c1cc2c(cc1N/C(=N/S(=O)(=O)c1ccccc1)c1ccc(Cl)cc1)OCO2 -7.74%
Cc1cc(C)cc(C(=O)Nc2c(C(=O)Nc3ccccc3F)oc3ccccc23)c1 -10.4%
COc1cccc2sc(N3CCN(C(=O)CS(=O)(=O)c4ccc(Cl)cc4)CC3)nc12 -18.7%
CC(C)N(C(=O)c1cc2c(Cl)nc3ccccc3c2s1)C1CCCCC1 -5.42%
COc1cccc(CNc2ncc(-c3ccc(Br)cc3)n2C)c1 -2.08%
Cc1onc(-c2ccc(Br)cc2)c1C(=O)Nc1ccc(Br)cc1F 2.65%
CCOC(=O)c1scc(-c2ccc(C)cc2)c1S(=O)(=O)Nc1cccc(CC)c1 -34.4%
COc1ccc(-n2c(SCC(=O)Nc3nnc(C)s3)nc3c([nH]c4ccccc43)c2=O)cc1 -20%
O=C(O)CC(NS(=O)(=O)c1ccc(Br)s1)c1ccccc1 (configuration not stated) -15.1%
CCOc1ccc(NC(=O)Cn2cc(C(=O)c3ccc(C)cc3)c(=O)c3cc4c(cc32)OCCO4)cc1 -8.49%
Nc1c(-c2nc(-c3ccccc3)cs2)c2ccccn2c1C(=O)c1ccc2c(c1)OCO2 -8.71%
O=C(NCCCN1CCN(c2ccccc2)CC1)c1nnc(Cc2ccc(F)cc2)o1 -15.2%
CCN1C(C(=O)c2ccccc2)=C(OC(=O)COc2ccccc2)c2ccccc2S1(=O)=O -1.1%
CC1=C(C(=O)Nc2cc(C)ccc2C)C2(CCCCCC2)OC1=O -9.96%
Cc1cc(C)c(S(=O)(=O)N2CCN(Cc3nc4ccc(C)cc4o3)CC2)c(C)c1 -21.3%
Cc1cccc(C(=O)Nc2cc3c(cc2N2CCOCC2)n(C)c(=O)n3C)c1 -11.7%
CCOC(=O)c1ccccc1Nc1cc(C)nc2nc(-c3ccco3)nn12 -11.8%
COc1cc2c(cc1OC)C(COc1ccc(F)cc1)N(C(=O)c1ccccc1F)CC2 (configuration not stated) -25.1%
Cc1cccc(-c2nnc(SCC(=O)N3CCCc4ccccc43)o2)c1 -9.44%
CSc1cccc(NC(=O)Cn2nc(C)c3sc4ccccc4c3c2=O)c1 -9.3%
CC(=O)c1ccc(C(=O)N(Cc2cccnc2)c2nc3c(Cl)cccc3s2)cc1 10.4%
CCOCCCNC(=O)Nc1cc(C(=O)NCc2ccc(C(C)C)cc2)ccc1N1CCCC1 -22.9%
CC(C)OCCCN(C)C1CCN(S(=O)(=O)c2csc(C(N)=O)c2)CC1 -17.9%
COc1ccc(-n2c(C)nc3cc(C(=O)NC4CCCC4)ccc32)cc1 -6.14%
Cc1cccc(CS(=O)(=O)c2ncc(Cl)c(C(=O)Nc3nc4ccc(F)cc4s3)n2)c1 -6.03%
Cn1nnnc1SCCNCc1ccccc1OCc1ccc(Cl)cc1Cl -16.8%
COC(=O)C(C)NC(=O)N1CCN(c2nnc(C)c3c(C)n(-c4ccc(Cl)cc4)nc23)CC1 (configuration not stated) -20.8%
Cc1cc(C)cc(NC(=O)C2CCN(c3cc(C)nc4c(-c5ccc(Cl)cc5)c(C)nn34)CC2)c1 -10.1%
Cc1ccc(S(=O)(=O)c2nnn3c2nc(NCc2cccs2)c2sccc23)cc1C -2.4%
CCCCCCCCCCCCCCCC(=O)NCCO -11.3%
CCOc1ccc(N(CC)S(=O)(=O)N2CCCC(C(=O)NCc3ccc(Cl)cc3)C2)cc1 (configuration not stated) -17.5%
CC(C)NC(=O)N1CCC(N2CCN(Cc3ccc(F)cc3)C(=O)C2=O)CC1 -11.2%
O=C(Cc1ccc(F)cc1)NCCc1csc(-c2cccc(F)c2)n1 -9.18%
Cc1ccc(C)c(NS(=O)(=O)c2ccc3c(c2)n(C)c(=O)n3C)c1 -11%
COc1ccc(-c2noc(Cn3c(=O)c4ccccc4n(CC(=O)Nc4cccc(C(F)(F)F)c4)c3=O)n2)cc1 -1.79%
CN1CCN(C2=Nc3cc(Cl)ccc3Nc3ccccc32)CC1 -8.95%
Cc1oc(-c2cccc(Br)c2)nc1Cn1c(=O)cc(-c2ccccc2)c2c(C)nn(C)c21 -5.25%
COc1ccc2c(c1)c1c(c(=O)n(Cc3ccccc3)c(=O)n1CC(=O)Nc1c(C)cccc1C)n2C -7.75%
Cc1ccc(S(=O)(=O)NCCc2sc3nc(-c4ccccc4)nn3c2C)cc1C 0.0997%
Cc1ccccc1-c1nc(CS(=O)(=O)CC(=O)Nc2cccc(C(F)(F)F)c2)c(C)o1 13.8%
O=C(c1cccc(Cl)c1)N(Cc1ccco1)Cc1ccccc1Cl -6.98%
CCc1nc2onc(C)c2c(=O)n1CC(=O)O -5.09%
CCn1c(SCC(=O)N2CCC(C)CC2)nnc1-c1ccccc1O -8.77%
CCCn1ccc2c(OCC(=O)Nc3ccccc3OCC)cccc2c1=O 9.26%
Cn1c(SCc2cccc(F)c2)nc2c([nH]c3ccccc32)c1=O -6.44%
O=C(NCC(c1cccnc1)N1CCOCC1)C(=O)Nc1ccc(F)cc1 (configuration not stated) -11.8%
COc1ccc(OC)c(CCNc2nccn(-c3ccc(C)c(C)c3)c2=O)c1 -4.87%
Cc1ccc(CNC(=O)CCC(=O)N2Cc3ccccc3Oc3ncccc32)cc1 -6.59%
COc1ccc(Cn2c(=O)[nH]c3cc(C(=O)N4CCN(c5ccccc5)CC4)ccc3c2=O)cc1 3.08%
COc1ccccc1NC(=O)C1=C(C)Nc2nc3ccccc3n2C1c1cccc(Br)c1 (configuration not stated) -9.74%
COc1ccc(N2CCN(Cc3cc(=O)oc4ccc(OC)cc34)CC2)cc1 -2.33%
CCc1ccccc1Nc1cc(C(=O)NCCc2ccccc2)c2ccccc2n1 -15.4%
CCCOc1ccc(Nc2cc(C)nc(C)n2)cc1 -19.3%
O=C(Cn1c(=O)n(-c2ccc(F)cc2)c(=O)c2sc3ccccc3c21)NC1CCCCC1 -1.84%
CCOC(=O)c1ccc2c(c1)N(Cc1cccc(C(F)(F)F)c1)C(=O)c1ccccc1S2(=O)=O -11.2%
COCCCNS(=O)(=O)c1ccc(N2CCCCS2(=O)=O)cc1 -8.35%
Cc1ccc(NC(=O)CN2C(=O)CSc3ccc(S(=O)(=O)N4CCCC4)cc32)c(C)c1 -8.13%
COc1ccc(C(=O)Oc2c(Sc3ccccc3)c(C)nn2-c2ccccc2)cc1OC -16.4%
COc1ccc(CCNC(=O)C2CCN(c3nc4ccccc4nc3C(F)(F)F)CC2)cc1OC -11.4%
O=C(Nc1ccc2nc(SCC(=O)N3CCCc4ccccc43)sc2c1)c1cccc(Cl)c1 -6.73%
COc1cccc(-c2nnc(-c3cc4cc(Cl)ccc4oc3=O)o2)c1 -12.7%
O=C1CCc2cc(S(=O)(=O)NCc3ccc(Cl)cc3)cc3c2N1CC3 -11.3%
CN(C)CCN1CCN(c2cccc(Cl)c2)C1=O -9.4%
COc1ccccc1NC(=O)c1oc2ccccc2c1NC(=O)C(C)C 1.22%
Cc1cccc(NC(=O)CSc2nnc3scc(-c4ccccc4)n23)c1 -14.3%
CCC1CCC(C(=O)NC(C(=O)NCCN(CC(C)C)CC(C)C)C(C)C)CC1 (configuration not stated) -9.48%
